Results as given in publication PMC6212790.
This is one part of the list. At the low end of the ranking, values are background and their order means little.
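Further: rank score from −0.5 (least bound) to 0.5 (best bound).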

What follows are sequences tested against T1, GST-Rok-C97-191 (UniProt O34857) (assay: protein binding microarray). Conditions: Rok is a gene silencer of Bacillus subtilis; high values mean tight binding; most listed sequences are background and not binding sites; double strand, one strand shown.
T1 sequence: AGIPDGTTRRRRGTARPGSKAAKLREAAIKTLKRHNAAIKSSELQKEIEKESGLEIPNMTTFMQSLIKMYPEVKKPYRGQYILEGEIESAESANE
In the case of AATACGGT, the binding signal was 0.19 E-score.
Work on GTTGGCCA yielded a binding signal of -0.0707 E-score.
TACAACGA showed a binding signal of 0.163 E-score.
ACGCATGA gave a binding signal of -0.158 E-score.
With GACGCGGC the binding signal was -0.272 E-score.
Sequence AATTGACA has a binding signal of 0.0748 E-score.
ATGGGGTG gave a binding signal of -0.148 E-score.
Work on AGTGCGAC yielded a binding signal of -0.0204 E-score.
With AGCGATTA the binding signal was 0.0308 E-score.
In the case of CCGTACAG, the binding signal was -0.0637 E-score.
Work on AATTGCTG yielded a binding signal of 0.212 E-score.
In the case of TCGTGAAA, the binding signal was 0.0565 E-score.
In the case of CCGCGCAA, the binding signal was -0.118 E-score.
AGTAGCTC showed a binding signal of 0.14 E-score.
Sequence ACAATGCC has a binding signal of -0.166 E-score.
CGCCGCAA showed a binding signal of -0.234 E-score.
For ACAGGGTG, the binding signal was -0.121 E-score.
GTTGATTA was tested, and the binding signal was 0.195 E-score.
Work on TAAATGTA yielded a binding signal of 0.399 E-score.
ACTGTCCT was tested, and the binding signal was 0.0569 E-score.
AAGCGCGC showed a binding signal of -0.255 E-score.
Sequence CTAAGGGA has a binding signal of -0.171 E-score.
Work on AAATATAT yielded a binding signal of 0.417 E-score.
GGCTAAGA showed a binding signal of 0.0221 E-score.
CATAGGTA was tested, and the binding signal was 0.14 E-score.
In the case of CATAAATG, the binding signal was 0.0536 E-score.
For GAGAAAAA, the binding signal was 0.0631 E-score.
ACTCCTCT gave a binding signal of -0.0807 E-score.
GCACAGTA gave a binding signal of -0.172 E-score.
GATCGTGA gave a binding signal of -0.311 E-score.
Work on CAAGTTTC yielded a binding signal of 0.00138 E-score.
AAACCAAA gave a binding signal of -0.0538 E-score.
AAACATTT was tested, and the binding signal was 0.0169 E-score.
ATGCCACG showed a binding signal of -0.119 E-score.
For CATCAGAC, the binding signal was -0.171 E-score.
AATTAATA gave a binding signal of 0.305 E-score.
In the case of AATACTTG, the binding signal was 0.0788 E-score.
Work on AGAATGTC yielded a binding signal of -0.0787 E-score.
ACTTCTTC was tested, and the binding signal was -0.0743 E-score.
Sequence CGCTCGTA has a binding signal of 0.132 E-score.
In the case of AGAATGGG, the binding signal was 0.0832 E-score.
CGATAACG was tested, and the binding signal was 0.191 E-score.
Sequence CGACTATA has a binding signal of 0.122 E-score.
For CGACATAC, the binding signal was 0.0958 E-score.
ATGCGGTC gave a binding signal of -0.24 E-score.
In the case of GCGGCGCC, the binding signal was -0.329 E-score.
GGGATACC was tested, and the binding signal was 0.0184 E-score.
In the case of CAGCGTGG, the binding signal was -0.207 E-score.
With CCCGTAGC the binding signal was 0.02 E-score.
With CTCCTACA the binding signal was 0.0222 E-score.
With ACAACCGT the binding signal was 0.165 E-score.
In the case of CCGGCACG, the binding signal was -0.0932 E-score.
For GATCAGAA, the binding signal was 0.0829 E-score.
ACAAAAGG gave a binding signal of -0.134 E-score.
AGAAATAG showed a binding signal of 0.326 E-score.
Work on CATCAAGC yielded a binding signal of -0.279 E-score.
CGTATACG showed a binding signal of 0.0133 E-score.
With CGACCGTC the binding signal was -0.0882 E-score.
TCTTCGCA was tested, and the binding signal was 0.109 E-score.
With AAGGACGC the binding signal was -0.13 E-score.
With AACTGAAT the binding signal was -0.0112 E-score.
CACGGTGA showed a binding signal of -0.12 E-score.
For AGCCCACA, the binding signal was -0.207 E-score.
For AACTGTTA, the binding signal was 0.201 E-score.
ACGTTAAG gave a binding signal of -0.00861 E-score.
For AGCCGCCA, the binding signal was -0.336 E-score.
Work on AATCTAGA yielded a binding signal of 0.331 E-score.
Work on GATGGAGC yielded a binding signal of -0.0473 E-score.
GGATCAAA showed a binding signal of -0.144 E-score.
CCAATTGA showed a binding signal of -0.109 E-score.
With AAAAGTGA the binding signal was -0.0623 E-score.
ACATTAGG was tested, and the binding signal was 0.0638 E-score.
With AGACCGGA the binding signal was -0.00161 E-score.
In the case of GCCATGGA, the binding signal was 0.146 E-score.
GACTCTAC was tested, and the binding signal was -0.0759 E-score.
In the case of CCCTACGA, the binding signal was -0.00886 E-score.
Work on CAATTATG yielded a binding signal of 0.142 E-score.
GATTGCTA gave a binding signal of 0.18 E-score.
AACCTGGC gave a binding signal of -0.0685 E-score.
ATTTTCGG was tested, and the binding signal was 0.221 E-score.
Sequence GTAAGTAA has a binding signal of 0.238 E-score.
Sequence GTAGGGAC has a binding signal of -0.135 E-score.
For ACCGCTTC, the binding signal was -0.292 E-score.
Work on GTCTGTAA yielded a binding signal of 0.206 E-score.
TTACGAAA gave a binding signal of 0.14 E-score.
In the case of CACTCGAC, the binding signal was -0.229 E-score.
ATAGCTTC showed a binding signal of 0.0377 E-score.
AACCGCCA was tested, and the binding signal was -0.203 E-score.
For CTCAAGGA, the binding signal was -0.143 E-score.
Work on AAGTCGTG yielded a binding signal of -0.00769 E-score.
With AGGACCTC the binding signal was -0.146 E-score.
ATTGATAA showed a binding signal of 0.243 E-score.
For CTATGTCC, the binding signal was 0.0302 E-score.
For GGGTTGAA, the binding signal was -0.205 E-score.
With GCCTGACA the binding signal was -0.176 E-score.
CCCCCCAG gave a binding signal of -0.245 E-score.
With GAAGAAAC the binding signal was 0.108 E-score.
GAAGGATA showed a binding signal of 0.0411 E-score.
Work on GCGGAGCA yielded a binding signal of -0.296 E-score.
With CTTCCATC the binding signal was -0.103 E-score.
Sequence CTATCGGC has a binding signal of 0.0347 E-score.
GTAATCCA gave a binding signal of -0.0655 E-score.
In the case of CCTCGTCC, the binding signal was -0.365 E-score.
CTGATCAG gave a binding signal of 0.0208 E-score.
Work on AGCGCCCA yielded a binding signal of -0.323 E-score.
Work on GCTATACC yielded a binding signal of -0.0163 E-score.
AGACGCCT gave a binding signal of -0.184 E-score.
For ACATATTG, the binding signal was 0.232 E-score.
For GAGTCAAC, the binding signal was -0.217 E-score.
GACCCTCA was tested, and the binding signal was -0.264 E-score.
Work on CCGATATA yielded a binding signal of 0.274 E-score.
Work on ACCATGAG yielded a binding signal of -0.0581 E-score.
AACCAGCT was tested, and the binding signal was -0.195 E-score.
For ACGATACG, the binding signal was 0.0899 E-score.
Sequence TACCGCCA has a binding signal of 0.0197 E-score.
In the case of AGGTTCAG, the binding signal was 0.0249 E-score.
CGCAACAC gave a binding signal of -0.0189 E-score.
ACGCTCTC was tested, and the binding signal was -0.3 E-score.
For CTGGCCGA, the binding signal was 0.0508 E-score.
GCCGCGGA showed a binding signal of -0.187 E-score.
Work on CGTGCAAA yielded a binding signal of 0.0567 E-score.
GTTATGGA gave a binding signal of -0.0343 E-score.
With ACATGGCT the binding signal was -0.0476 E-score.
With GGCTGCCC the binding signal was -0.232 E-score.
CGTACCTC showed a binding signal of -0.179 E-score.
AGATTCCT showed a binding signal of 0.111 E-score.
Work on ATGGAGAG yielded a binding signal of -0.115 E-score.
Sequence TGAGCAAA has a binding signal of 0.00907 E-score.
GGAAGGCC showed a binding signal of -0.309 E-score.
For CGGGAAGA, the binding signal was -0.123 E-score.
Work on CTTAATGC yielded a binding signal of 0.0481 E-score.
With ATTCCTTG the binding signal was 0.0225 E-score.
For ACCGGGCC, the binding signal was -0.315 E-score.
In the case of CAGCCTCC, the binding signal was -0.274 E-score.
Work on GAAGATTA yielded a binding signal of 0.122 E-score.
With AATATTTC the binding signal was 0.274 E-score.
Sequence ATTTTTTC has a binding signal of -0.0201 E-score.
Sequence GGCACGGA has a binding signal of -0.0988 E-score.
For CACGAATC, the binding signal was 0.064 E-score.
ATGTCACG gave a binding signal of -0.112 E-score.
For CTAATGCA, the binding signal was 0.0617 E-score.
Work on GCGCGTCC yielded a binding signal of -0.291 E-score.
Work on GAGTTACA yielded a binding signal of 0.0993 E-score.
GTCTCACA was tested, and the binding signal was -0.294 E-score.
Work on TCCCAAGA yielded a binding signal of -0.129 E-score.
CCTAGGCG gave a binding signal of -0.291 E-score.
In the case of ACCCCTGC, the binding signal was -0.242 E-score.
GCCTCTTA was tested, and the binding signal was -0.135 E-score.
With AAGATCGG the binding signal was -0.0288 E-score.
In the case of CATTTGCG, the binding signal was -0.0244 E-score.
Sequence AAGACAGT has a binding signal of -0.131 E-score.
GTGCGAAC was tested, and the binding signal was -0.184 E-score.
Sequence ATACTAGC has a binding signal of 0.288 E-score.
For AGCGACTC, the binding signal was 0.0123 E-score.
ACAATGGT gave a binding signal of 0.0419 E-score.
In the case of TGCAGTAA, the binding signal was 0.128 E-score.
AATCGTGT gave a binding signal of 0.175 E-score.
Sequence TACGAGAA has a binding signal of 0.0502 E-score.
Work on ACCCGAGA yielded a binding signal of -0.114 E-score.
ACACTGAG showed a binding signal of -0.271 E-score.
Work on GTGGGGCA yielded a binding signal of -0.288 E-score.
In the case of AATGCTGG, the binding signal was -0.177 E-score.
ATAGCCCC was tested, and the binding signal was -0.135 E-score.
GTCGTTCA gave a binding signal of -0.116 E-score.
Sequence GCCTCACC has a binding signal of -0.172 E-score.
GCTGGTAA gave a binding signal of 0.079 E-score.
AAACATGC showed a binding signal of 0.0654 E-score.
CCTTAACC showed a binding signal of -0.0281 E-score.
In the case of AATGTAGT, the binding signal was 0.291 E-score.
Sequence AGCATCGA has a binding signal of -0.0444 E-score.
AGCTCGTG showed a binding signal of -0.241 E-score.
AGTATACC was tested, and the binding signal was 0.0736 E-score.
